Where two headings read alike, the source gives them in different places.
Tests used:
ABCC4 [1] = biological target: T1, ABCC4 (Homo sapiens, UniProt O15439); assay: ATP-dependent substrate transport and kinetic analysis in membrane vesicles from V79 cells with recombinant ABCC4; assay type: biochemical; parameters: expressed in transfected cells; host or cells: Chinese hamster lung V79 fibroblasts (V79-ABCC4), inside-out membrane vesicles
T1 sequence (O15439 1-1325): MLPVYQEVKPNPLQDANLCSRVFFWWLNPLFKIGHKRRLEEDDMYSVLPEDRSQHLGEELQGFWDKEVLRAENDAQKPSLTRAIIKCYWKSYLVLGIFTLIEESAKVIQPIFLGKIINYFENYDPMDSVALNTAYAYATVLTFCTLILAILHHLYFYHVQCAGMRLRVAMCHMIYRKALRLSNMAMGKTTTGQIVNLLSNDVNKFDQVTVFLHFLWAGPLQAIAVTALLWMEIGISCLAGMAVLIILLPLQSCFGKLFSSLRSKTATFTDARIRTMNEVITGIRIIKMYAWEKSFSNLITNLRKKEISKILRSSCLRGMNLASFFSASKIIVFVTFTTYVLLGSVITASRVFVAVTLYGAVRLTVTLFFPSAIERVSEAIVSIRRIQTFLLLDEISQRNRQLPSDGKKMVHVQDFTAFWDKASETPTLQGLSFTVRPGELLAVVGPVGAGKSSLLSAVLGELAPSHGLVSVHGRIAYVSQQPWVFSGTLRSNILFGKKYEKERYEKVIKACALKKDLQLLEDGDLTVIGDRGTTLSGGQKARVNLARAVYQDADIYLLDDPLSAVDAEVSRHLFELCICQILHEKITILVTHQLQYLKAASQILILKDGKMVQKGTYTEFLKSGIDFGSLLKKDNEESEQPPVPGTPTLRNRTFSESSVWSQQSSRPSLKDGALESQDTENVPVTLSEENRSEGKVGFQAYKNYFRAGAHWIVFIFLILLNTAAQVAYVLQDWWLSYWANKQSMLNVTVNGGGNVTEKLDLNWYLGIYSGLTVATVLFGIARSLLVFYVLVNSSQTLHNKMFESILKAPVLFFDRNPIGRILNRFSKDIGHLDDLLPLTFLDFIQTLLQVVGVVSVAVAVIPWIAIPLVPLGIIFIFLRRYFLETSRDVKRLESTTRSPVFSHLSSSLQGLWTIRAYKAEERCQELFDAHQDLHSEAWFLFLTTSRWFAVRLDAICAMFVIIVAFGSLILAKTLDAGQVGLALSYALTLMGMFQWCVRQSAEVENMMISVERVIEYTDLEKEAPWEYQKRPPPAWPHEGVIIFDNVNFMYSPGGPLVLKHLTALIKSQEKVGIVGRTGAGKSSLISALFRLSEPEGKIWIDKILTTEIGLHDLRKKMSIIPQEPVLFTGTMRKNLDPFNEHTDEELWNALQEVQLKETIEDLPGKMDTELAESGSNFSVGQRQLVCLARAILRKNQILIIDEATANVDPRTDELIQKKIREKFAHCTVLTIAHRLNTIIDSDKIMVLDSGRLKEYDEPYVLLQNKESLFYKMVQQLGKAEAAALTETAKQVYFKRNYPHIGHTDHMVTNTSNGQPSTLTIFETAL

ABCC4 [2] = biological target: T1, ABCC4; settings: HeLa-Co vesicles, 5 μM [^3H]C-tau
ABCC4 [3] = biological target: T1, ABCC4; assay: ATP-dependent substrate transport and kinetic analysis in plasma membrane vesicles from human platelets (endogenous ABCC4); settings: platelet plasma membrane fraction, 5 μM [^3H]C-tau

| increase of the rate of ABCC4-mediated [^3H]LTB4 transport by GSH (ABCC4 [1]; 100 nM [^3H]LTB4, 5 mM GSH, V79 vesicles) | Km (ABCC4 [1]; vesicles from V79-ABCC4, 0.1 to 1 μM LTB4, 5 mM GSH, read-out: Km value for ABCC4 (LTB4 transport)) | ATP-dependent [^3H]C-tau transport (ABCC4 [2]; with 5 mM GSH) | ATP-dependent [^3H]C-tau transport (ABCC4 [2]; without GSH) | ATP-dependent [^3H]C-tau transport (ABCC4 [3]; 5 mM GSH) | ATP-dependent [^3H]C-tau transport (ABCC4 [3]; without GSH) | Compound |
| --- | --- | --- | --- | --- | --- | --- |
| 4.7 fold | 5.2 ± 0.2 µM |  |  |  |  | CCCCC/C=C\C[C@@H](O)/C=C/C=C/C=C\[C@@H](O)CCCC(=O)O [LTB4, Leukotriene B4] |
|  |  | 14.3 pmol×mg protein^−1×min^−1 | 1.7 pmol×mg protein^−1×min^−1 | 2.8 pmol×mg protein^−1×min^−1 | 0.7 pmol×mg protein^−1×min^−1 | cholyltaurine |
